Reference: article PMC9911399, “Two distinct binding modes provide the RNA-binding protein RbFox with extraordinary sequence specificity”
Residue numbers refer to the chain shown, from its start. The list shows a part of the results.

T1: RBFOX1 RRM (Homo sapiens, UniProt Q9NWB1 109-208)
T1 sequence: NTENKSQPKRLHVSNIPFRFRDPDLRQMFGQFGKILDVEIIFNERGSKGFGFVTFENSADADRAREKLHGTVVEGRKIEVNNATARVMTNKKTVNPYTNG

B1: GGAGACG (DNA:RNA)
RNA: GGGAGACCGGAAUUCAGAUUGUCCGGAGACGUUAAAUCCCGUCGUAGCCACCA
DNA 1: CAATCTGAATTCCGGTCTCCC
DNA 2: TGGTGGCTACGACGGGATT
B2: GGGCCGA (DNA:RNA)
RNA: B1 RNA with A27G, G28C, A29C, C30G, G31A
DNA 1: CAATCTGAATTCCGGTCTCCC
DNA 2: TGGTGGCTACGACGGGATT
B3: CAAGUAC (DNA:RNA)
RNA: B1 RNA with G25C, G26A, A29U, C30A, G31C
DNA 1: CAATCTGAATTCCGGTCTCCC
DNA 2: TGGTGGCTACGACGGGATT
B4: ACUAACG (DNA:RNA)
RNA: B1 RNA with G25A, G26C, A27U, G28A
DNA 1: CAATCTGAATTCCGGTCTCCC
DNA 2: TGGTGGCTACGACGGGATT
B5: UCUGACU (DNA:RNA)
RNA: B1 RNA with G25U, G26C, A27U, G31U
DNA 1: CAATCTGAATTCCGGTCTCCC
DNA 2: TGGTGGCTACGACGGGATT
B6: CUCGGGC (DNA:RNA)
RNA: B1 RNA with G25C, G26U, A27C, A29G, C30G, G31C
DNA 1: CAATCTGAATTCCGGTCTCCC
DNA 2: TGGTGGCTACGACGGGATT
B7: CAAUAAC (DNA:RNA)
RNA: B1 RNA with G25C, G26A, G28U, C30A, G31C
DNA 1: CAATCTGAATTCCGGTCTCCC
DNA 2: TGGTGGCTACGACGGGATT
B8: CCUAUUG (DNA:RNA)
RNA: B1 RNA with G25C, G26C, A27U, G28A, A29U, C30U
DNA 1: CAATCTGAATTCCGGTCTCCC
DNA 2: TGGTGGCTACGACGGGATT
B9: UCUAAGU (DNA:RNA)
RNA: B1 RNA with G25U, G26C, A27U, G28A, C30G, G31U
DNA 1: CAATCTGAATTCCGGTCTCCC
DNA 2: TGGTGGCTACGACGGGATT
B10: UAGAUUA (DNA:RNA)
RNA: GGGAGACCGGAAUUCAGAUUGUCCUAGAUUAUUAAAUCCCGUCGUAGCCACCA
DNA 1: CAATCTGAATTCCGGTCTCCC
DNA 2: TGGTGGCTACGACGGGATT
B11: CUACAAC (DNA:RNA)
RNA: B1 RNA with G25C, G26U, G28C, C30A, G31C
DNA 1: CAATCTGAATTCCGGTCTCCC
DNA 2: TGGTGGCTACGACGGGATT
B12: UCUCUCU (DNA:RNA)
RNA: B10 RNA with A26C, G27U, A28C, U30C, A31U
DNA 1: CAATCTGAATTCCGGTCTCCC
DNA 2: TGGTGGCTACGACGGGATT
B13: UGGCUAG (DNA:RNA)
RNA: B10 RNA with A26G, A28C, U30A, A31G
DNA 1: CAATCTGAATTCCGGTCTCCC
DNA 2: TGGTGGCTACGACGGGATT
B14: GCAGACG (DNA:RNA)
RNA: B1 RNA with G26C
DNA 1: CAATCTGAATTCCGGTCTCCC
DNA 2: TGGTGGCTACGACGGGATT
B15: AAUUCCA (DNA:RNA)
RNA: B10 RNA with U25A, G27U, A28U, U29C, U30C
DNA 1: CAATCTGAATTCCGGTCTCCC
DNA 2: TGGTGGCTACGACGGGATT
B16: ACCGCGA (DNA:RNA)
RNA: B1 RNA with G25A, G26C, A27C, A29C, C30G, G31A
DNA 1: CAATCTGAATTCCGGTCTCCC
DNA 2: TGGTGGCTACGACGGGATT
B17: UUUGUAA (DNA:RNA)
RNA: B10 RNA with A26U, G27U, A28G, U30A
DNA 1: CAATCTGAATTCCGGTCTCCC
DNA 2: TGGTGGCTACGACGGGATT
B18: CGUGUCA (DNA:RNA)
RNA: B1 RNA with G25C, A27U, A29U, G31A
DNA 1: CAATCTGAATTCCGGTCTCCC
DNA 2: TGGTGGCTACGACGGGATT
B19: AGAAUGU (DNA:RNA)
RNA: B1 RNA with G25A, G28A, A29U, C30G, G31U
DNA 1: CAATCTGAATTCCGGTCTCCC
DNA 2: TGGTGGCTACGACGGGATT
B20: GUUGCAU (DNA:RNA)
RNA: B1 RNA with G26U, A27U, A29C, C30A, G31U
DNA 1: CAATCTGAATTCCGGTCTCCC
DNA 2: TGGTGGCTACGACGGGATT
B21: AGCCGUA (DNA:RNA)
RNA: B10 RNA with U25A, A26G, G27C, A28C, U29G
DNA 1: CAATCTGAATTCCGGTCTCCC
DNA 2: TGGTGGCTACGACGGGATT
B22: UUUUUAG (DNA:RNA)
RNA: B10 RNA with A26U, G27U, A28U, U30A, A31G
DNA 1: CAATCTGAATTCCGGTCTCCC
DNA 2: TGGTGGCTACGACGGGATT
B23: GAACUGC (DNA:RNA)
RNA: B1 RNA with G26A, G28C, A29U, C30G, G31C
DNA 1: CAATCTGAATTCCGGTCTCCC
DNA 2: TGGTGGCTACGACGGGATT
B24: AUCGUGC (DNA:RNA)
RNA: B1 RNA with G25A, G26U, A27C, A29U, C30G, G31C
DNA 1: CAATCTGAATTCCGGTCTCCC
DNA 2: TGGTGGCTACGACGGGATT
B25: AUGCCUC (DNA:RNA)
RNA: B10 RNA with U25A, A26U, A28C, U29C, A31C
DNA 1: CAATCTGAATTCCGGTCTCCC
DNA 2: TGGTGGCTACGACGGGATT
B26: GGCCGCG (DNA:RNA)
RNA: B1 RNA with A27C, G28C, A29G
DNA 1: CAATCTGAATTCCGGTCTCCC
DNA 2: TGGTGGCTACGACGGGATT
B27: CAGCUCC (DNA:RNA)
RNA: B10 RNA with U25C, A28C, U30C, A31C
DNA 1: CAATCTGAATTCCGGTCTCCC
DNA 2: TGGTGGCTACGACGGGATT
B28: CAUAUCU (DNA:RNA)
RNA: B10 RNA with U25C, G27U, U30C, A31U
DNA 1: CAATCTGAATTCCGGTCTCCC
DNA 2: TGGTGGCTACGACGGGATT
B29: UUCUCUA (DNA:RNA)
RNA: B10 RNA with A26U, G27C, A28U, U29C
DNA 1: CAATCTGAATTCCGGTCTCCC
DNA 2: TGGTGGCTACGACGGGATT
B30: UUUGUAG (DNA:RNA)
RNA: B1 RNA with G25U, G26U, A27U, A29U, C30A
DNA 1: CAATCTGAATTCCGGTCTCCC
DNA 2: TGGTGGCTACGACGGGATT
B31: CCCUGAA (DNA:RNA)
RNA: B10 RNA with U25C, A26C, G27C, A28U, U29G, U30A
DNA 1: CAATCTGAATTCCGGTCTCCC
DNA 2: TGGTGGCTACGACGGGATT

target: T1, RBFOX1 RRM; assay: EMSA; HiTS-Eq, 1 nM pool, 10 min; buffer printed only for the single-RNA assays: 10 mM Tris pH 7.5, 150 mM NaCl, 3.4 mM EDTA, 0.001% NP-40, 30 C; details: tags: His6 N-terminal (pET28a); label: 5' 32P
Summary of the method: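 A pool of RNA with 7 randomized nucleotides, 5′-radiolabelled and with DNA-annealed flanks, was equilibrated at 1 nM for 10 min in 50 µL with purified RbFox RRM, wild type or mutant, across increasing protein concentrations. Free RNA was separated by 8% native PAGE, excised, reverse-transcribed, barcoded by PCR and sequenced. Relative association constants were obtained from read-count changes of each RNA species versus the control reaction and normalised to the cognate motif.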

With B1 as the binder, how does the binding signal read?
Its binding signal is 0.0165 KA relative to UGCAUGU.

For B2, which binding signal is on record?
Its binding signal is 0.0168 KA relative to UGCAUGU.

With B3 as the binder, how does the binding signal read?
Its binding signal is 0.0023 KA relative to UGCAUGU.

For B4, which binding signal is on record?
Its binding signal is 0.00263 KA relative to UGCAUGU.

B5 was tested. Which binding signal did it give?
The binding signal was 0.00965 KA relative to UGCAUGU.

Which binding signal does the source give for B6 here?
The binding signal was 0.00316 KA relative to UGCAUGU.

How did the binding signal turn out when B7 was run?
The binding signal was 0.00247 KA relative to UGCAUGU.

With B8 as the binder, how does the binding signal read?
The binding signal was 0.00577 KA relative to UGCAUGU.

With B9 as the binder, how does the binding signal read?
The binding signal was 0.00842 KA relative to UGCAUGU.

How did the binding signal turn out when B10 was run?
Its binding signal is 0.00551 KA relative to UGCAUGU.

With B11 as the binder, how does the binding signal read?
Its binding signal is 0.000329 KA relative to UGCAUGU.

With B12 as the binder, how does the binding signal read?
The binding signal was 0.00409 KA relative to UGCAUGU.

B13 was tested. Which binding signal did it give?
Its binding signal is 0.0286 KA relative to UGCAUGU.

For B14, which binding signal is on record?
The binding signal was 0.00979 KA relative to UGCAUGU.

How did the binding signal turn out when B15 was run?
The binding signal was 0.00102 KA relative to UGCAUGU.

For B16, which binding signal is on record?
The binding signal was 0.00595 KA relative to UGCAUGU.

How did the binding signal turn out when B17 was run?
Its binding signal is 0.0114 KA relative to UGCAUGU.

With B18 as the binder, how does the binding signal read?
The binding signal was 0.00921 KA relative to UGCAUGU.

With B19 as the binder, how does the binding signal read?
Its binding signal is 0.0214 KA relative to UGCAUGU.

B20 was tested. Which binding signal did it give?
Its binding signal is 0.0231 KA relative to UGCAUGU.

Which binding signal does the source give for B21 here?
The binding signal was 0.00251 KA relative to UGCAUGU.

With B22 as the binder, how does the binding signal read?
The binding signal was 0.0201 KA relative to UGCAUGU.

For B23, which binding signal is on record?
The binding signal was 0.0144 KA relative to UGCAUGU.

For B24, which binding signal is on record?
The binding signal was 0.012 KA relative to UGCAUGU.

Which binding signal does the source give for B25 here?
Its binding signal is 0.0104 KA relative to UGCAUGU.

Which binding signal does the source give for B26 here?
The binding signal was 0.0132 KA relative to UGCAUGU.

How did the binding signal turn out when B27 was run?
The binding signal was 0.00767 KA relative to UGCAUGU.

For B28, which binding signal is on record?
Its binding signal is 0.00324 KA relative to UGCAUGU.

With B29 as the binder, how does the binding signal read?
The binding signal was 0.00444 KA relative to UGCAUGU.

For B30, which binding signal is on record?
Its binding signal is 0.0166 KA relative to UGCAUGU.

Which binding signal does the source give for B31 here?
The binding signal was 0.00426 KA relative to UGCAUGU.
